Source: PubChem BioAssay AID485344 (National Center for Advancing Translational Sciences (NCATS), 2010)
The whole screen tested about 340,000 compounds, of which about 6,900 (2%) were called active. Cut-off read from the data, not from the text of the source: active = inhibition above about 30%; inactive = below that, where a call was filed. This is a selection; strong and weak results do not stand in their true shares. Where no call is shown, the source filed none.

Molecular target: D(2) dopamine receptor (Homo sapiens) (UniProt P14416)
UniProt P14416, sequence (P14416 whole entry, looked up): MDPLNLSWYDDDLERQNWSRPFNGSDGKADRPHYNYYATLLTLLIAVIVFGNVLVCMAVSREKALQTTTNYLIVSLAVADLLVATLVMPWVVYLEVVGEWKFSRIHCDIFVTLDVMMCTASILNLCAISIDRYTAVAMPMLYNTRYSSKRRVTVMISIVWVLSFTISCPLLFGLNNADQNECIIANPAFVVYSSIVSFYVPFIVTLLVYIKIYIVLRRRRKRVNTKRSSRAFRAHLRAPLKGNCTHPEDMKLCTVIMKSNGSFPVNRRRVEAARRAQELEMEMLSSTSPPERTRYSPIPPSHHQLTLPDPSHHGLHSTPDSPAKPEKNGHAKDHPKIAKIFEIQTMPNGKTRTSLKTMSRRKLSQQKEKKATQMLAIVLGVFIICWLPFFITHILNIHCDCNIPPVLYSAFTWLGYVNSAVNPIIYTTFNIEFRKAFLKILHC
Assay: HTS Assay for Allosteric Antagonists of the Human D2 Dopamine Receptor: Primary Screen for Antagonists; note: 0% is about no effect
Details: HEK293 TREx D2 cells, calcium flux, dopamine EC80; at 10 µM; stronger effect = higher value
Outline: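 HEK293 T-REx D2 cells, tet-induced, calcium dye no-wash. Cpd pintool add, 180 s kinetic, then EC80 DA, 180 s kinetic. Ca flux read.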

Structure (SMILES)	inhibition
Cc1ccc(-c2cc(C(=O)O)n(Cc3ccccc3)n2)cc1	-0.0793%
Cc1ccc(S(=O)(=O)c2nc(-c3ccccc3)oc2N2CCN(c3ccccc3)CC2)cc1	-1.24%
COc1ccc(C(=O)Nc2ccc(-n3nncc3-c3ccc(OC)c(OC)c3)cc2)cc1	-5.18%
COc1cccc(OC)c1-c1nn(-c2ncc(C(F)(F)F)cc2Cl)c(=O)o1	active: 37.7%
Cc1ccc(-n2c3c(c(=O)[nH]c2=O)C(NC(=O)c2ccccc2F)(C(F)(F)F)C(=O)N3)cc1C (centres undefined)	8.41%
COc1ccc(-c2cc(C(=O)Nc3c(Cl)cccc3Cl)no2)cc1OC	-21.3%
CCN(CCCNC(=O)c1cc2c(=O)n(CC)c3ccccc3c2s1)c1cccc(C)c1	-18.5%
CCc1ccc(N2CCn3c2nc2c3c(=O)n(Cc3ccc(F)cc3)c(=O)n2C)cc1	18.1%
O=C(C[n+]1ccccc1)N/N=C/c1ccccc1Cl	active: 35.9%
CCc1ccccc1NC(=O)C1CCCN(S(=O)(=O)c2cccc3nsnc23)C1 (centres undefined)	11.8%
COc1ccc(C(=O)N/C(=C\c2cc(OC)c(OC)cc2[N+](=O)[O-])C(=O)NCCO)cc1	active: 38.7%
COc1ccc(Nc2cc(C)nc(-n3nc(C)cc3C)n2)cc1Cl	8.97%
CCOc1ccc(-c2nc3c(C#N)c[nH]n3c2NC2CCCC2)cc1	19.3%
Cc1ccc(C2=Nc3ccccc3NC(c3ccncc3)=N2)cc1	15.1%
CCNC(=O)Nc1ccc(-n2nc(C)c(C(=O)OCC)c2C)nc1	active: 45%
CNS(=O)(=O)c1cn(CC(=O)Nc2ccc(C)cc2C)cc1S(=O)(=O)NC	-8.03%
CCOC(=O)c1cc(-c2ccc(C)cc2)nn1Cc1ccccc1	11%
COc1ccc(NS(=O)(=O)c2ccc(NC(=O)N3CCCC3)cc2)cc1	-2.59%
Cc1ccc(-c2cn3c(n2)sc2cc(C(=O)NCCCc4ccccc4)ccc23)cc1	-20%
Cc1cc(OCCCSc2nc(-c3ccc(C(C)(C)C)cc3)nc3cc(=O)[nH]n23)ccc1Cl	-2.1%
CCc1ccc(NC(=O)CSc2ccc3nnc(CCNS(=O)(=O)c4ccc(OC)cc4)n3n2)cc1	-0.851%
Cc1ccccc1NC(=O)c1ccccc1NC(=O)c1ccccc1Cl	-14.2%
COc1cccc(CNC(=O)CC(c2ccc(F)cc2)N2Cc3ccccc3C2=O)c1 (centres undefined)	1.2%
CCc1ccc(NC(=O)C2CCN(c3cc(C)nc4c(-c5ccc(Cl)cc5)c(C)nn34)CC2)cc1	-1.69%
CC(C)c1ccc(NC(=O)CCCc2nc(-c3ccc(Cl)cc3)no2)cc1	15.1%

Structure (SMILES)	inhibition
COc1cc(Cl)c(NC(=O)C2CCN(S(=O)(=O)c3c(C)noc3/C=C/c3ccccc3F)CC2)c(OC)c1	0.487%
CC1CCN(C(=O)Cn2cnc3c2c(=O)n(C)c(=O)n3C)c2ccccc2S1 (centres undefined)	active: 45.2%
COc1cc(C2c3c(-c4ccccc4O)n[nH]c3C(=O)N2Cc2ccncc2)ccc1O (centres undefined)	13.3%
CCCOc1ccc(NC(=O)CC2C(=O)N(c3ccccc3)C(=O)N2CCC(C)C)cc1 (centres undefined)	-3.89%
CN1C(=O)CSc2ccc(NC(=O)NCc3ccccc3)cc21	active: 30.2%
Cc1ccc(CN2CCN(c3ncccn3)CC2)c(C)c1	active: 80%
CSc1ccc(CN2CCN(CC=C(C)C)C(CCO)C2)cc1 (centres undefined)	active: 33%
Cc1ccc2c(=O)cc(C(=O)Nc3c(C)n(C)n(-c4ccccc4)c3=O)oc2c1C	-13.3%
CCC(=O)NC1CC(=O)N(c2ccc3c(c2)OCCO3)C1 (centres undefined)	-11.3%
COc1ccccc1NC(=O)Cn1c(=O)n(Cc2ccco2)c(=O)c2oc3ccccc3c21	-1.47%
O=C(CN1C(=O)C(c2ccc(F)cc2)=NC12CCCCCC2)Nc1ccc(F)c(Cl)c1	1.64%
COc1cc(-c2cc(OC)c3c(C)oc(C)c3c(=O)c2)ccc1OC(=O)c1ccccc1C	-6.49%
COC(=O)C(C)Sc1nnc2cc(C)c3cc(C)cc(C)c3n12 (centres undefined)	-19.9%
CN(C(=O)c1nc(-c2cccc(F)c2)n2c1CCCCC2)c1ccccc1F	9.93%
O=C(CCCn1c(=O)[nH]c2ccccc2c1=O)NCc1ccccc1Cl	-2.87%
COc1cccc(NC(=O)CSc2nc3ccc(NC(=O)c4ccco4)cc3s2)c1	-2.01%
CN1C(C(=O)NCc2cccc(C(F)(F)F)c2)CC2Cn3c(nc4cc5ccccc5cc43)C21 (centres undefined)	active: 42.6%
CCc1nn(CC(=O)NCCCOC)c(=O)c2cc3occc3n12	1.43%
Cc1ccc(-c2nnc(Nc3ccc(Br)cc3)c3ccccc23)cc1S(=O)(=O)N1CCCCC1	-6.92%
O=C(Cn1cnc2c(nc3n2CCCCC3)c1=O)Nc1ccc(F)cc1	-2.55%
CCCN(CCC)CCCNC(=O)Cn1cnc2onc(-c3ccc(F)cc3)c2c1=O	-9.02%
C/C(=N\NC(=O)c1cccnc1)c1cc(C)oc1C	active: 33.5%
CCN1C(=O)c2cccc3c(S(=O)(=O)Nc4ccc(O)c(C(=O)O)c4)ccc1c23	2.6%
CCOc1ccccc1C(=O)N(Cc1ccc(N(C)C)cc1)CC1CCCO1 (centres undefined)	8.96%
